Assay results from the RNAGym collection of RNA variant scans (doi:10.7554/elife.90254).
The source gives no read counts; variants with many changes may rest on few reads.

B1: LINE1-full (parent)
chain: UACGUAGGUGGUUUUCCCCUGAUAGUGCUAAGGGGGCCUGGAAGUUUGGACUGGGCAGAGCUCAACACAGCGUGGCAAAGUGGCUGUGGCUAGACUGCCUCUCUGGAUUCCUCGUCACUCAGCAGGGCAUCUCUGAGAGAAAUGCC

Variants of: B1
Test: self-cleavage, relative activity (ratio to wild type); higher = more cleavage; in vitro, sequencing; the parent is a self-cleaving ribozyme

| Variant | self-cleavage |
| --- | --- |
| U9C C71A U143C | 0.57 |
| U9C C71U A92G A141G | 0.13 |
| U9C C71U U96C | 0.08 |
| U9C C71U U134C | 0.62 |
| U9C C90A A141G | 0.07 |
| U9C G10C U15C A43G | 1.41 |
| U9C G10U U100C U104C A129G | 1.84 |
| U9C G11U A31G G36C G58U U108C | 0.13 |
| U9C G11U A65G A77G A142U | 0.22 |
| U9C G21A U39C U47C G88A U119A | 0.07 |
| U9C G21U U52A | 1.61 |
| U9C G25A A69G | 0.77 |
| U9C G25C U52C A124G | 1.57 |
| U9C G27A A59G U96C | 0 |
| U9C G27A U45G A67G | 0.24 |
| U9C G27U U29C U132C | 1.53 |
| U9C G34U U132C C146U | 1.88 |
| U9C G35A U45C A78U | 1.62 |
| U9C G35A U46C U81C A121G | 2.3 |
| U9C G35A U87C A94U A124U | 0.06 |
| U9C G40A A94G | 0.4 |
| U9C G41U G72C A140G | 1.15 |
| U9C G48A U134C | 1.25 |
| U9C G48C C71U | 0.7 |

| Variant | self-cleavage |
| --- | --- |
| U9C G55A U108C G125U A129U A142G | 0.22 |
| U9C G58A U87A | 0.14 |
| U9C G74A A78G | 1.01 |
| U9C G74U C113U | 0.47 |
| U9C G82A A94U G97A A136G A142G | 0 |
| U9C G82A A140G | 1.77 |
| U9C G122C U134A | 2.4 |
| U9C G127C U143C | 1.72 |
| U9C G135A A136G | 0.98 |
| U9C U12A U119A | 0.94 |
| U9C U12C A24U U45C | 0.84 |
| U9C U12C A50G G58A C90U A121U | 0.15 |
| U9C U12C A94G | 0 |
| U9C U12C U14C A121U | 0.3 |
| U9C U12G A43G A77U | 1.51 |
| U9C U12G U14C | 1.78 |
| U9C U12G U14C G55A | 0.65 |
| U9C U12G U29C C84U | 0.99 |
| U9C U13A A57G | 0 |
| U9C U13A U26C U47C G54A U85C | 0.06 |
| U9C U13C A64G | 0.88 |
| U9C U13C A69U A124U A129U A141G | 0.11 |
| U9C U13C A117U A121U A136G A142G | 1.4 |
| U9C U13C A140G | 0.9 |

| Variant | self-cleavage |
| --- | --- |
| U9C U13C C61A U102A U143A | 0.14 |
| U9C U13C U39C A64U | 0.65 |
| U9C U13C U73C A121G | 1.97 |
| U9C U13C U115C A124G | 0.84 |
| U9C U14A A57U U112A | 0.3 |
| U9C U14C A121G | 1.38 |
| U9C U14C C38U | 0.98 |
| U9C U14C C66U U100C A138G | 0.18 |
| U9C U14C G74U A77U | 1.48 |
| U9C U14C U45C | 1.67 |
| U9C U14C U46C G114A | 0.92 |
| U9C U14C U108C A142G | 0.8 |
| U9C U14G U15C | 1.31 |
| U9C U14G U130C | 2.23 |
| U9C U15A A138G | 0.89 |
| U9C U15A U96C U119A A141G | 0.4 |
| U9C U15A U134C | 0.66 |
| U9C U15C A77U A78C | 0.66 |
| U9C U15C A78G A94G C116G | 0.29 |
| U9C U15C G82A U91A U104A | 0.9 |
| U9C U15C U73C | 1.31 |
| U9C U15C U109A U132C | 2.22 |
| U9C U20A A42G C98U | 1.29 |
| U9C U20C A117G | 1.29 |

| Variant | self-cleavage |
| --- | --- |
| U9C U20C C51U U87G U96C | 0.39 |
| U9C U20C U45C | 1.08 |
| U9C U20C U112A U115G A129U | 1.97 |
| U9C U20C U115C | 2.96 |
| U9C U23A A64U C84U U85C | 0.06 |
| U9C U23C A24U A65U A77G U96C | 0 |
| U9C U26C A50G G75A U96A | 0.09 |
| U9C U26C A50U U115A U119C | 2.12 |
| U9C U26C A67U C98U U134C | 0.09 |
| U9C U26C U39C C90U | 0.06 |
| U9C U26G G48A A67G | 0.51 |
| U9C U29C A65U | 0.32 |
| U9C U39A A57C A69G U85A | 0 |
| U9C U39A A77G G125A U130A G137A | 1.8 |
| U9C U39A U47C U62C A140G A141G | 0 |
| U9C U39A U108C A129G | 2.3 |
| U9C U39C A43G C113A A124G | 0.58 |
| U9C U39C A69G A138G | 0 |
| U9C U39C A129U | 0.9 |
| U9C U39C U47A A64U | 0.37 |
| U9C U39C U85A U87A A121G | 0.16 |
| U9C U45C A50G | 2.09 |
| U9C U45C A94G G127U | 0.54 |
| U9C U45C A142G | 2.42 |

| Variant | self-cleavage |
| --- | --- |
| U9C U46C A59G A64U U85A A92G | 0.29 |
| U9C U46C U62C | 0 |
| U9C U46C U87A U132C | 0.21 |
| U9C U47C A59C U102C | 1.84 |
| U9C U47C A64G C90G A142G | 0.11 |
| U9C U47C A79G U100A A117G | 1.15 |
| U9C U47C U112C | 1.23 |
| U9C U47G A79G | 1.38 |
| U9C U47G A136G U143A | 1.5 |
| U9C U52C A117G | 1.53 |
| U9C U52C U62C | 0 |
| U9C U52G G72A A107G U115C C118A U132A U143A | 2.46 |
| U9C U62A C90U | 0.01 |
| U9C U62A G72C | 0.09 |
| U9C U62C U96C | 0.06 |
| U9C U62C U112A | 0.12 |
| U9C U73A U102A U130C | 1.27 |
| U9C U73A U112C | 1.56 |
| U9C U73C A77G A94U U102C A121U | 1.02 |
| U9C U73C A79G | 1.62 |
| U9C U73C G127U | 0.66 |
| U9C U73G A92G A136G | 0.52 |
| U9C U81C A117U A129C | 1.47 |
| U9C U85A U102C A121U | 0.18 |

| Variant | self-cleavage |
| --- | --- |
| U9C U85A U115C A140G | 0.06 |
| U9C U85A U119C A129U | 0.39 |
| U9C U85C G97A A136G | 0.09 |
| U9C U87C A124U | 2.12 |
| U9C U87C A138G | 0.25 |
| U9C U96A A140G | 0.06 |
| U9C U96C C145U | 0 |
| U9C U96C U132C | 0.19 |
| U9C U100C U115C U132A | 2.3 |
| U9C U104C G135U | 0.99 |
| U9C U109A A138G | 2.17 |
| U9C U115C G122A | 2.03 |
| U9C U115C U130A A142G U143C | 0 |
| U9C U115C U143C | 1.58 |
| U9C U119C A136G | 1.72 |
| U9C U134A A141U | 0.75 |
| U9G A22G U134C | 2.07 |
| U9G A31U C38A | 0.92 |
| U9G A31U G88A U96G U134C | 0.09 |
| U9G A42G C56U U104C G135A | 0.33 |
| U9G A42U C84U | 0.06 |
| U9G A43G A107C | 0 |
| U9G A43G U45G U46C C146U | 2.22 |
| U9G A43G U108C | 0 |

| Variant | self-cleavage |
| --- | --- |
| U9G A65G U108C | 0.26 |
| U9G A69G U130C | 0.94 |
| U9G A78G U102A | 1.05 |
| U9G C37U U85C U91C | 0 |
| U9G G10U A77C | 0.77 |
| U9G G33A A50U A59G A67U U104A U109C A140G | 0.07 |
| U9G G53A A92G | 0.35 |
| U9G U12C U102C G144A C146U | 0.71 |
| U9G U12G A78G G80U | 0.67 |
| U9G U13C U143C | 0 |
| U9G U14C U112C A140G | 0 |
| U9G U20C U26C C113U G125U | 1.28 |
| U9G U23C U39C | 0.75 |
| U9G U26C U81C | 0.66 |
| U9G U47C C131U | 1.05 |
| U9G U47C G114A | 0.63 |
| U9G U52C U109C A140G | 0.68 |
| U9G U85C U130C | 0.17 |
| U9G U134A A136G | 0.85 |
| G10A A22G A57G U91C | 0 |
| G10A A22G U100A | 0.74 |
| G10A A24C A64U U73G U85C U102C U112A | 0 |
| G10A A24G A59U | 0.45 |
